Results: the supplement of paper PMC3334620
The full ranking holds about 33,000 sequences; the median of “E-score (-0.5 to 0.5)” is about -0.056, and the highest 2% start at about 0.38. The list shows a part of the results.

biological target: Stb4 (UniProt P50104); assay: PBM E-score (8-mer binding enrichment) (E-score (-0.5 to 0.5)); higher = stronger / more preferred TF binding; most listed sequences are background and not binding sites; settings: protein concentration: 200 nM; construct: GST-DNA-binding domain
In short: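 E-scores (a modified Wilcoxon-Mann-Whitney statistic) were assigned by the Universal PBM Analysis Suite to every ungapped eight-base word pooled with its reverse complement. The input came from universal all-10-mer Agilent arrays made double-stranded by primer extension and probed with GST-tagged yeast transcription factors at about 100-200 nM. Fluorescent anti-GST detected bound protein, and masliner normalised the scans.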

Sequence	PBM E-score
GGTCTCTA	-0.0978
AGCATAGC	-0.364
CGCTACCG	0.177
AGCGATCA	-0.156
GGAGTAAC	0.0827
GCATCCCA	-0.0683
GGTTGGTA	1e-05
AAAGCAGG	0.047
TGCCGGCA	0.296
CATGGGGG	-0.23
ACGCCAGT	-0.0635
ACCAACTC	-0.209
CCAGAAAC	-0.0188
AGTCTAAA	-0.0902
CTTATACC	0.0291
CTTCCGAC	0.457
GGGGCCCC	0.0542
GTTTCGTA	0.128
CTTGTGGC	-0.0925
ATTATAAT	0.0674
CACTTAAC	-0.105
ACCTCCGT	0.0596
GTACGTTA	0.0456
GGGTCTTA	0.0444

Sequence	PBM E-score
CACGGCAC	0.162
ACAATCAG	-0.107
AGTACGAT	-0.0788
CGGGGCGA	0.148
AACCCAAG	-0.101
CAGTAGGC	-0.298
TGTACGAA	-0.0828
CCGCGCGA	0.0755
GTTATATA	-0.0331
CTCGAGAC	-0.0401
ATCAACTC	-0.165
AAGTTGCA	-0.0963
AAGCGGCA	0.133
GAAGCAAA	-0.131
CACGTCGC	-0.0175
GCAGGAGC	-0.179
ATCCACAA	-0.164
GAGATATA	0.147
ATTCCTTC	0.0813
CTATCGGC	0.26
CGTTGTGC	-0.0543
AAGGCGAC	-0.0376
ACGGCAGT	0.0924
CACACTCG	0.183

Sequence	PBM E-score
CAGCTGAC	-0.021
CCTTGTAA	-0.0698
CCGCCCGC	0.246
ATTATTGC	0.0604
GATCAGAC	-0.18
AAGCCTCG	0.163
TAGATTAA	0.0206
CGAGCGTC	0.00847
CCTTCGAA	-0.117
CCCGGCTC	0.285
AGACTCTA	-0.132
CCCCTGTA	-0.144
AACAATCC	0.0191
CAATCAAA	-0.196
ACACTAAT	-0.0952
CGGCTGTC	0.264
AATACGGC	0.0867
AGTTGTGA	-0.0949
ACGAATAC	-0.0867
GGAAACAA	0.228
CCAAACAA	0.0125
ACACCATG	-0.303
AGCAGGGA	-0.286
AAAACCGA	0.303

Sequence	PBM E-score
TCATGACA	-0.0776
GAACGACC	-0.204
CCTGAAGA	-0.177
ATTAATCA	-0.15
TCCCGTCA	0.185
AATCGAGG	-0.0911
AATGTCTG	0.0612
CGCGATGA	-0.121
CTCCACAG	-0.222
CAATGTAA	0.112
AATAGAGT	-0.184
CAAGTGAG	-0.259
TAAAACGA	-0.215
ACAACCAG	-0.0185
ATGTACCC	0.121
ATGGCAAA	-0.0662
AACATGAG	-0.00858
CTACACGA	-0.0779
AAACATCC	0.38
CGCATGAA	-0.0756
AGAAGAAC	-0.0371
AATGTATC	0.0613
